Experimental data taken from a collection of fitness landscapes (doi:10.1016/j.celrep.2020.107928).
In all, about 81,000 sequences were measured (“one-hybrid fitness for binding NBS DNA”: median about -0.1, highest 2% from about 0.36 on). The list shows a part of the results.

B1: Caulobacter ParB omega fusion; a variant is named by its letters at X, in order, B8GW30 (parent)
chain: MESVVVGEPGMSEGRRGLGRGLSALLGEVDAAPAQAPGEQLGGSREAPIEILQRNPDQPRRTFREEDLEDLSNSIREKGVLQPILVRPSPDTAGEYQIVAGERAWRAAQRAGLKTVPIMVRELDDLAVLEIGIIENVQRADLNVLEEALSYKVLMEKFERTQENIAQTIGKSXSHVANXMRLLXLPDEVQSYLVSGELTAXHARAIAAAADPVALAKQIIEGGLSVRETEALARKAPNLSAGKSKGGRPPRVKDTDTQALESDLSSVLGLDVSIDHRGSTGTLTITYATLEQLDDLCNRLTRGI

Variants of: B1
Assay: one-hybrid fitness for binding NBS DNA (the Noc-binding site; scaled: cognate 1, non-cognate 0); higher = stronger binding
Details: with NBS DNA site
How it was run: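 Pre- and post-selection plasmids were Illumina-sequenced, three replicate libraries were pooled, and any variant with under 10 reads was removed. The libraries were Caulobacter ParB with four specificity codons randomised, selected in E. coli USO through a HIS3 reporter whose site is 19 bp from the promoter. Cells grew 48 hours at 37°C on M9 without histidine, with 0.1 mM IPTG and 5 mM 3-AT. Fitness is the log change in variant-to-wild-type read ratio, rescaled against cognate and non-cognate.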

| Variant | one-hybrid fitness for binding NBS DNA |
| --- | --- |
| WKFS | ≤ 0.2 |
| GFMG | ≤ 0.2 |
| QVDH | ≤ 0.2 |
| WHTG | ≤ 0.2 |
| TECS | ≤ 0.2 |
| RGSI | ≤ 0.2 |
| HNEW | ≤ 0.2 |
| GTTR | ≤ 0.2 |
| PDDT | ≤ 0.2 |
| AAHK | ≤ 0.2 |
| KNYY | ≤ 0.2 |
| LEHS | ≤ 0.2 |
| HMLD | ≤ 0.2 |
| KNIS | ≤ 0.2 |
| AMPS | ≤ 0.2 |
| SDHT | ≤ 0.2 |
| YYMS | ≤ 0.2 |
| TKFP | ≤ 0.2 |
| TTGV | ≤ 0.2 |
| TQQC | ≤ 0.2 |
| WDPG | ≤ 0.2 |
| RYFP | ≤ 0.2 |
| KIDC | ≤ 0.2 |
| RLRI | ≤ 0.2 |
| QHHH | 0.214 |
| TLNI | ≤ 0.2 |

| Variant | one-hybrid fitness for binding NBS DNA |
| --- | --- |
| VTRI | ≤ 0.2 |
| VMYS | ≤ 0.2 |
| QYHP | ≤ 0.2 |
| PWNL | ≤ 0.2 |
| RKPK | ≤ 0.2 |
| CPNV | ≤ 0.2 |
| HPIT | ≤ 0.2 |
| NEAF | ≤ 0.2 |
| RLTP | ≤ 0.2 |
| AEPW | ≤ 0.2 |
| AHAL | ≤ 0.2 |
| KLER | ≤ 0.2 |
| LIFG | ≤ 0.2 |
| PCGV | ≤ 0.2 |
| VFGR | ≤ 0.2 |
| SIIE | ≤ 0.2 |
| RVYR | 0.359 |
| QKNW | ≤ 0.2 |
| DARR | ≤ 0.2 |
| WSVR | ≤ 0.2 |
| PSRQ | ≤ 0.2 |
| HMNG | ≤ 0.2 |
| MTSG | ≤ 0.2 |
| SKCC | ≤ 0.2 |
| GEAN | ≤ 0.2 |
| VTDT | ≤ 0.2 |

| Variant | one-hybrid fitness for binding NBS DNA |
| --- | --- |
| DSFC | ≤ 0.2 |
| IWTG | ≤ 0.2 |
| QSRG | 0.319 |
| GWHS | ≤ 0.2 |
| DPQR | ≤ 0.2 |
| WLKW | ≤ 0.2 |
| PFNK | ≤ 0.2 |
| HSRC | ≤ 0.2 |
| FTRY | ≤ 0.2 |
| LGMG | ≤ 0.2 |
| RHPC | ≤ 0.2 |
| RNEY | ≤ 0.2 |
| VRHM | ≤ 0.2 |
| QSCY | ≤ 0.2 |
| KTSW | ≤ 0.2 |
| DEWR | ≤ 0.2 |
| YSAC | ≤ 0.2 |
| NREV | ≤ 0.2 |
| RQMN | ≤ 0.2 |
| PCHM | ≤ 0.2 |
| MFHT | ≤ 0.2 |
| HLQT | ≤ 0.2 |
| AKYR | ≤ 0.2 |
| SMAP | ≤ 0.2 |
| GRAI | ≤ 0.2 |
| TPSF | ≤ 0.2 |

| Variant | one-hybrid fitness for binding NBS DNA |
| --- | --- |
| IGYE | ≤ 0.2 |
| MWSS | ≤ 0.2 |
| CFAA | ≤ 0.2 |
| EHQD | ≤ 0.2 |
| YPMC | ≤ 0.2 |
| NDAS | ≤ 0.2 |
| RPKA | ≤ 0.2 |
| VMSS | ≤ 0.2 |
| KWRV | ≤ 0.2 |
| SKAG | ≤ 0.2 |
| LPDK | ≤ 0.2 |
| HDQY | ≤ 0.2 |
| NTQT | ≤ 0.2 |
| AVSQ | ≤ 0.2 |
| PQSP | ≤ 0.2 |
| SVRT | ≤ 0.2 |
| QMYK | ≤ 0.2 |
| ITCC | ≤ 0.2 |
| CYHL | ≤ 0.2 |
| VCRT | ≤ 0.2 |
| YWNS | ≤ 0.2 |
| GITR | ≤ 0.2 |
| CRNA | ≤ 0.2 |
| EIAA | ≤ 0.2 |
| FMQR | ≤ 0.2 |
| WLYA | ≤ 0.2 |

| Variant | one-hybrid fitness for binding NBS DNA |
| --- | --- |
| SKTH | ≤ 0.2 |
| TWMG | ≤ 0.2 |
| SWQL | ≤ 0.2 |
| WCAL | ≤ 0.2 |
| SDSG | ≤ 0.2 |
| RRDM | ≤ 0.2 |
| NRNK | ≤ 0.2 |
| QTVR | 0.558 |
| RYAA | ≤ 0.2 |
| NFSS | ≤ 0.2 |
| EFAG | ≤ 0.2 |
| WWQF | ≤ 0.2 |
| DRRC | ≤ 0.2 |
| IETR | ≤ 0.2 |
| RYRV | ≤ 0.2 |
| LYLT | ≤ 0.2 |
| LSTS | ≤ 0.2 |
| VTLI | ≤ 0.2 |
| VINL | ≤ 0.2 |
| PRRY | ≤ 0.2 |
| NLSS | ≤ 0.2 |
| RTMG | ≤ 0.2 |
| HCYC | ≤ 0.2 |
| TKDF | ≤ 0.2 |
| TASH | ≤ 0.2 |
| AAYY | ≤ 0.2 |

| Variant | one-hybrid fitness for binding NBS DNA |
| --- | --- |
| QAQQ | ≤ 0.2 |
| QHNA | 0.294 |
| DNTV | ≤ 0.2 |
| ATKS | ≤ 0.2 |
| QKQT | 0.578 |
| PVEV | ≤ 0.2 |
| NWHW | ≤ 0.2 |
| GVPH | ≤ 0.2 |
| FSDD | ≤ 0.2 |
| PTVA | ≤ 0.2 |
| ENRN | ≤ 0.2 |
| NGKT | ≤ 0.2 |
| TMNE | ≤ 0.2 |
| RHSY | ≤ 0.2 |
| VYQY | ≤ 0.2 |
| IYHM | ≤ 0.2 |
| WIKG | ≤ 0.2 |
| PVYY | ≤ 0.2 |
| PVSS | ≤ 0.2 |
| TCLA | ≤ 0.2 |
| RGKH | ≤ 0.2 |
| GRSR | ≤ 0.2 |
| FRTE | ≤ 0.2 |
